Source: the supplement of paper PMC8792480
Structures can show the parent of a compound that is named as a salt. The list shows a part of the results. Most values come without repeats; read them as rough.

Tested on: NCI-H460
Assay: cell-surface PD-L1 MFI ratio relative to radiation alone (isotype-subtracted); higher = higher PD-L1 surface expression
Settings: inducer: radiation 8 Gy; 10 µM; 24 h
Experimental: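 A549 and H460 NSCLC cells were treated with each library drug at 10 uM, then with radiation (8 Gy) or cisplatin (4 uM), and incubated for 24 h. Cell-surface PD-L1 was measured by flow cytometry as an MFI ratio: (MFI drug+inducer - MFI isotype)/(MFI inducer alone - MFI isotype). Hits were defined as ratio < 0.75.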
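Note: surface PD-L1 on NSCLC cells stained with a PE-labelled anti-human PD-L1 antibody before flow cytometry, screening a library of roughly two hundred mostly kinase and epigenetic inhibitors.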

SMILES	cell-surface PD-L1 MFI ratio
CC1(C)CCC(c2ccc(Cl)cc2)=C(CN2CCN(c3ccc(C(=O)NS(=O)(=O)c4ccc(N[C@H](CCN5CCOCC5)CSc5ccccc5)c(S(=O)(=O)C(F)(F)F)c4)cc3)CC2)C1 [Navitoclax (ABT-263)]	inactive: 1.12
CC1(C)[C@@H](O[C@H]2O[C@H](C(=O)O)[C@@H](O)[C@H](O)[C@H]2O[C@@H]2O[C@H](C(=O)O)[C@@H](O)[C@H](O)[C@H]2O)CC[C@]2(C)[C@H]3C(=O)C=C4[C@@H]5C[C@@](C)(C(=O)O)CC[C@]5(C)CC[C@@]4(C)[C@]3(C)CC[C@@H]12 [Glycyrrhizin (Glycyrrhizic Acid)]	inactive: 0.929
CN(C)c1cccc(-c2c3c(=O)n(-c4ccccc4Cl)[nH]c3cc(=O)n2C)c1	inactive: 1.02
CN1CCN(Cc2ccc(-c3cnc4[nH]cc(-c5ccc6[nH]ccc6c5)c4c3)cc2)CC1	active: 0.732
CCCc1cc(C)[nH]c(=O)c1CNC(=O)c1cc(-c2ccc(N3CCN(C(C)C)CC3)nc2)cc2c1cnn2C(C)C	inactive: 0.964
NC(=O)c1ncn([C@@H]2O[C@H](CO)[C@@H](O)[C@H]2O)c1N [AICAR (Acadesine)]	inactive: 1.45
C/C(=C\C(=O)Nc1ccccc1C(=O)O)c1ccc2ccccc2c1	inactive: 1.79
O=C([C@@H](Cc1cccc(C(F)(F)F)c1)NS(=O)(=O)c1cc(F)c2c(c1)CCNC2)N1CCCC1	inactive: 0.905
Cc1[nH]c(/C=C2\C(=O)Nc3ccc(S(=O)(=O)Cc4c(Cl)cccc4Cl)cc32)c(C)c1C(=O)N1CCC[C@@H]1CN1CCCC1	inactive: 44.1
CC(C)N1CCN(Cc2cnc(-c3cc(-c4cccc5[nH]ccc45)cc4[nH]ncc34)o2)CC1	inactive: 1.23
CCc1cnn2c(NCc3ccc[n+]([O-])c3)cc(N3CCCC[C@H]3CCO)nc12	active: 0.613
N#Cc1ccc2ncnc(NCCc3ccccc3)c2c1 [Senexin A]	inactive: 1.05
Nc1cccc(-c2cc3c(Oc4cccc(O)c4)ncnc3[nH]2)c1	inactive: 1.23
O=C(Nc1ccc2[nH]nc(-c3ccncc3)c2c1)[C@@H]1CCN(CC(=O)N2CCN(c3ccc(-c4ncccn4)cc3)CC2)C1	inactive: 1.24
CN(C)C(=N)NC(=N)N [Metformin]	inactive: 1.36
O=C1CCc2c(Oc3ccc4c(c3)[C@@H]3[C@H](O4)[C@H]3c3nc4cc(C(F)(F)F)ccc4[nH]3)ccnc2N1 [Lifirafenib (BGB-283)]	active: 0.625
C[C@]1(c2nc3c(C(N)=O)cccc3[nH]2)CCCN1 [Veliparib (ABT-888)]	inactive: 0.935
COc1ccc(Oc2cc(NCCC(F)(F)F)c3ncc(-c4ccc(C(=O)NC5CC5)c(C)c4)n3n2)c(F)c1F	inactive: 0.911
CC(=O)Oc1ccccc1C(=O)O [Aspirin]	inactive: 0.935

SMILES	cell-surface PD-L1 MFI ratio
CC1(C)CCC(CN2CCN(c3ccc(C(=O)NS(=O)(=O)c4ccc(NCC5CCOCC5)c([N+](=O)[O-])c4)c(Oc4cnc5[nH]ccc5c4)c3)CC2)=C(c2ccc(Cl)cc2)C1 [Venetoclax (ABT-199, GDC-0199)]	inactive: 2.03
O=C(Nc1cccc2cccnc12)c1ccc(N2C(=O)[C@@H]3[C@H](C2=O)[C@@H]2C=C[C@H]3C2)cc1 [IWR-1-endo]	inactive: 1.38
Oc1nc(-c2ccc(C(F)(F)F)cc2)nc2c1CSCC2	inactive: 1.35
CC(C)c1c(C(=O)Nc2ccccc2)c(-c2ccccc2)c(-c2ccc(F)cc2)n1CC[C@@H](O)C[C@@H](O)CC(=O)O [Atorvastatin]	inactive: 1.09
O=C(/C=C/c1cncc(F)c1)c1c(-c2ccccc2)c2cc(Cl)ccc2[nH]c1=O	inactive: 0.964
Cc1ccc(C(=O)N(CCCN)[C@@H](c2nc3cc(Cl)ccc3c(=O)n2Cc2ccccc2)C(C)C)cc1	inactive: 1.09
Cc1cnc(NC(=O)Nc2cc(Br)c(C)cc2OC[C@@H]2CNCCO2)cn1	inactive: 1.32
CC(ONC(=O)c1cc(C(F)(F)F)cc(C(F)(F)F)c1)C(=O)Nc1ccc(Cl)cc1 (configuration not stated)	inactive: 1.25
c1ccc2c(-c3cnn4cc(-c5ccc(N6CCNCC6)cc5)cnc34)ccnc2c1	inactive: 1.04
CNC(=O)c1ccccc1Sc1ccc2c(/C=C/c3ccccn3)n[nH]c2c1 [Axitinib]	inactive: 1.39
C=CC(=O)N1CCC([C@@H]2CCNc3c(C(N)=O)c(-c4ccc(Oc5ccccc5)cc4)nn32)CC1 [Zanubrutinib]	inactive: 1.11
CC[C@H](NC(=O)[C@H](C)NC)C(=O)N1C[C@@H](O)C[C@H]1Cc1c(-c2[nH]c3cc(F)ccc3c2C[C@@H]2C[C@H](O)CN2C(=O)[C@H](CC)NC(=O)[C@H](C)NC)[nH]c2cc(F)ccc12 [Birinapant]	inactive: 1.82
Cc1[nH]c2ccccc2c1CCNCc1ccc(/C=C/C(=O)NO)cc1 [Panobinostat]	inactive: 0.786
Nc1ccccc1NC(=O)c1ccc(CNC(=O)OCc2cccnc2)cc1 [Entinostat (MS-275)]	inactive: 0.774
Cc1cc(O)c(-c2ccc([C@@H](C)CN)cc2)c2c1[nH]c(=O)c1sccc12 [OTS514 hydrochloride]	active: 0.499
Cc1cc(Nc2cc(N)ncn2)c(=O)n2c1C(=O)NC21CCCCC1 [Tomivosertib (eFT-508)]	inactive: 1.03
CCOc1cc2ncc(C#N)c(Nc3ccc(OCc4ccccn4)c(Cl)c3)c2cc1NC(=O)/C=C/CN(C)C [Neratinib (HKI-272)]	inactive: 1.19
OCC1OC(O)CC(O)C1O [2-Deoxy-D-glucose]	inactive: 1.31
